Laboratory results as given in the supplement of paper PMC12645437, “Orthogonal IMiD-Degron Pairs Induce Selective Protein Degradation in Cells” (ACS Chemical Biology, 2025).
Some of the results follow.
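Further: jurkat cells carrying a lentiviral library of mutant zinc finger degrons fused to EGFP plus mCherry, mCherry+ cells FACS sorted, degron abundance counted by next-generation sequencing.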

The sequences below were run against no compound (DMSO) (assay: log2 fold change of degron read counts, EGFP-low vs EGFP+ sorted cells; higher = lower degron-EGFP level without compound (poor expression or instability)). Conditions: compound: DMSO control; 18 h.
For FVCDQCGAIFTQKGNLLRHIKL, the “log2 fold change of degron read counts” value was -0.994. FYCEQCGAIFTQKGNLLRHIKL was tested, and the “log2 fold change of degron read counts” value was 0.29. For LTCNQCGFRCTQKGNLLRHIKL, the “log2 fold change of degron read counts” value was 0.443. With FYCPVCGAFFTQKGNLLRHIKL the “log2 fold change of degron read counts” value was 1.47. With FSCNICGAKFTQKGNLLRHIKL the “log2 fold change of degron read counts” value was -0.274. With FVCEICGAPFTQKGNLLRHIKL the “log2 fold change of degron read counts” value was -1.17. FTCSVCGHHFTQKGNLLRHIKL was tested, and the “log2 fold change of degron read counts” value was -0.465. With FFCPICGAAFTQKGNLLRHIKL the “log2 fold change of degron read counts” value was 0.316. In the case of LGCPICGFMCTQKGNLLRHIKL, the “log2 fold change of degron read counts” value is reported as 1.01. For FSCSVCGHIFTQKGNLLRHIKL, the “log2 fold change of degron read counts” value was -0.0286. With LTCEICGFECTQKGNLLRHIKL the “log2 fold change of degron read counts” value was -1.14. In the case of LNCPICGFVCTQKGNLLRHIKL, the “log2 fold change of degron read counts” value is reported as 0.674. For FTCNQCGRPFTQKGNLLRHIKL, the “log2 fold change of degron read counts” value was -0.293. In the case of FRCNVCGAGFTQKGNLLRHIKL, the “log2 fold change of degron read counts” value is reported as -0.728. With FKCPQCGAGFTQKGNLLRHIKL the “log2 fold change of degron read counts” value was -0.828. FQCNICGAQFTQKGNLLRHIKL was tested, and the “log2 fold change of degron read counts” value was -0.457. For FTCPICGHIFTQKGNLLRHIKL, the “log2 fold change of degron read counts” value was 0.227. In the case of FQCSVCGHWFTQKGNLLRHIKL, the “log2 fold change of degron read counts” value is reported as -0.11. With FYCEICGHDFTQKGNLLRHIKL the “log2 fold change of degron read counts” value was -1.12. LFCEICGFACTQKGNLLRHIKL was tested, and the “log2 fold change of degron read counts” value was 0.705. For FMCPICGRRFTQKGNLLRHIKL, the “log2 fold change of degron read counts” value was 0.0202. In the case of FLCEICGRCFTQKGNLLRHIKL, the “log2 fold change of degron read counts” value is reported as -1.15. In the case of FMCPICGHPFTQKGNLLRHIKL, the “log2 fold change of degron read counts” value is reported as 0.543. FCCNQCGAGFTQKGNLLRHIKL was tested, and the “log2 fold change of degron read counts” value was -0.433. In the case of FACDVCGAWFTQKGNLLRHIKL, the “log2 fold change of degron read counts” value is reported as -0.417. With LHCNQCGFDCTQKGNLLRHIKL the “log2 fold change of degron read counts” value was -0.191. With FDCPICGHTFTQKGNLLRHIKL the “log2 fold change of degron read counts” value was -0.8. FKCNQCGHIFTQKGNLLRHIKL was tested, and the “log2 fold change of degron read counts” value was 0.109. In the case of FQCNICGAAFTQKGNLLRHIKL, the “log2 fold change of degron read counts” value is reported as -0.844. In the case of FSCNQCGASFTQKGNLLRHIKL, the “log2 fold change of degron read counts” value is reported as -1.02. With FHCEQCGAPFTQKGNLLRHIKL the “log2 fold change of degron read counts” value was -1.46. For FLCEICGADFTQKGNLLRHIKL, the “log2 fold change of degron read counts” value was -2.68.
